In PubChem BioAssay AID686978 (National Center for Advancing Translational Sciences (NCATS), 2013):
“And” between values parts separate entries of the source, which are not always exact repeats. Equal entries are not always repeated. About 64,000 (15%) of roughly 420,000 compounds were called active. The shares of active, inactive and inconclusive entries below differ from those in the screen. Calls follow the shape of the dose curve; as a rule, active = well fitted inhibition curve with a large enough effect; inconclusive = small, poorly fitted or top-dose-only effect; inactive = flat fitted curve, though single readings scatter. Where the call is inconclusive, the potency comes from a doubtful curve fit.

Assay: qHTS for Inhibitors of human tyrosyl-DNA phosphodiesterase 1 (TDP1): qHTS in cells in absence of CPT; also: nearly all actives have a fitted effect of over 55% in size
Settings: DT40 Tdp1-/- hTDP1 cells, no CPT, ATP luminescence, 48 h; activity change, negative = growth inhibition: at 46.2 µM (top of the series) unless noted
Outline: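 Luminescent ATP content (CellTiter-Glo) served as the growth readout. Knockout chicken DT40 cells expressing human TDP1 were exposed to compounds without camptothecin for a minimum 48 hr at 37 °C.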
% is scaled to controls: 0 for no effect and ±100 for the full control effect; potency is read from the fitted curve at half-maximal effect; tags tell the direction and shape of the fitted curve.

| Structure (SMILES) | Potency | activity change, negative = growth inhibition |
| --- | --- | --- |
| O=C(Nc1ccccc1C(=O)NCCCN1CCOCC1)c1cccc([N+](=O)[O-])c1 | inactive |  |
| CN1CCN(S(=O)(=O)c2cccc(C(=O)Nc3ccccc3N3CCCCC3)c2)CC1 | inconclusive: 29.1 µM [inhibitor, single point] |  |
| O=c1ccc2cc(S(=O)(=O)Nc3ccc(OC(F)(F)F)cc3)ccc2[nH]1 | inactive |  |
| CCC(=O)c1cc(F)ccc1OCC(=O)Nc1ccc2c(c1)OCCO2 | inconclusive: 13 µM [inhibitor, partial curve] |  |
| Cc1ccc(CNC(=O)CSC2=Nc3ccccc3N=C(c3ccc(F)cc3)C2)cc1 | inactive |  |
| COC(=O)c1ccc(Cn2c(SCc3ccc(F)cc3)nc3ccncc32)cc1 | inconclusive: 29.1 µM [inhibitor, single point] |  |
| Cn1c(SCc2nc3ccccc3[nH]2)nnc1-c1cnccn1 | inactive |  |
| COc1ccccc1Nc1nc(NCCC(C)C)nc(N)c1[N+](=O)[O-] | active: 18.4 µM |  |
| CN=C(c1ccco1)n1c(=S)nc(-c2ccco2)n(C)c1=S | inconclusive: 29.1 µM [inhibitor, single point] |  |
| Cc1nn(-c2cccc(C(F)(F)F)c2)c(=O)c2ccccc12 | inactive |  |
| CCc1nc2ccc(C(=O)N(C)CCN(C)C)cn2c1N(C)Cc1cc2ccccc2s1 | inconclusive: 18.4 µM [inhibitor, single point] |  |
| Cn1c2ccccc2c2cnn(CC(=O)Nc3ccccc3F)c(=O)c21 |  | inconclusive: -11.2% [inhibitor] |
| CC(C)CCn1c(=O)c2cccnc2n(CC(=O)Nc2ccccc2F)c1=O | inconclusive: 13 µM [inhibitor, partial curve, poor fit] |  |
| CC(C)C(C)NC(=O)COc1nc2ccccc2nc1N(C)C1CCCCC1 (stereo unspecified) | inconclusive: 16.4 µM [inhibitor, partial curve] |  |
| N#Cc1ccc(NC(=S)/N=C(\N)c2ccccc2)cc1 | inconclusive: 29.1 µM [inhibitor, single point] |  |
| C[C@H](CO)N1C[C@H](C)[C@@H](CN(C)Cc2ccncc2)Oc2c(NC(=O)C3CCCCC3)cccc2C1=O | inconclusive: 16.4 µM [inhibitor, single point] |  |
| Cn1c(SCC(=O)N2CCCc3ccccc32)nnc1-c1c[nH]c2ccccc12 | inconclusive: 18.4 µM [inhibitor, single point] |  |
| C#CCOCCOCCOCCNc1nc(N2CCN(C(=O)C([C@@H](C)O)n3cc([C@@H](N)CCCCN)nn3)CC2)nc(N2CCN(C(=O)[C@H](CCCCN)n3cc([C@@H](N)CC(N)=O)nn3)CC2)n1 (stereo partly specified) | inactive |  |
| COc1cc(C(=O)NC(=S)Nc2ccc3c(c2)C(=O)N(C)C3=O)cc(OC)c1OC | active: 3.66 µM |  |
| c1ccc2c(Nc3nc(N4CCOCC4)c4ccccc4n3)cccc2c1 | active: 23.1 µM |  |
| O=C(C[n+]1ccccc1Cl)c1ccc(Br)cc1 | inconclusive: 17.8 µM [inhibitor, partial curve] |  |
| O=C(Nc1ccc(S(=O)(=O)Nc2nccs2)cc1)c1cnc(Cl)c(Cl)c1 | inconclusive: 18.4 µM [inhibitor, single point] |  |

| Structure (SMILES) | Potency | activity change, negative = growth inhibition |
| --- | --- | --- |
| Cc1ccc2nc(Nc3nc(C)cc(-c4ccccc4)n3)[nH]c(=O)c2c1 | active: 14.6 µM |  |
| O=C(Nc1ccccn1)c1ccc(Cl)c(S(=O)(=O)N2CCCCCC2)c1 | inconclusive: 29.1 µM [inhibitor, partial curve, poor fit] |  |
| COc1cccc(Cn2c(-c3nonc3NC(C)=O)nc3ccccc32)c1 | active: 13 µM |  |
| COc1cccc(-c2noc(-c3cc(C(C)C)[nH]n3)n2)c1OC | inconclusive: 14.6 µM [inhibitor, single point] |  |
| COc1cc(/C=N/NC(=O)c2ccc(-c3ccccc3)cc2)cc(OC)c1OC | inconclusive: 29.1 µM [inhibitor, single point] |  |
| COc1cc(/C=C2\SC(=Nc3cccnc3)NC2=O)cc(OC)c1OC | inconclusive: 20.6 µM [inhibitor, partial curve, poor fit] |  |
| CC1CCN(c2c(NCc3ccc(C(=O)NCc4ccccc4)cc3)c(=O)c2=O)CC1 | inconclusive: 29.1 µM [inhibitor, single point] |  |
| O=C(O)c1cccc2c1C(=O)c1cc([N+](=O)[O-])cc([N+](=O)[O-])c1-2 | inconclusive: 0.58 µM [inhibitor, full curve, poor fit] |  |
| CC1(C)Cc2c(sc(NC(=O)c3ccc(C(=O)c4ccccc4)cc3)c2C#N)C(C)(C)N1 | inactive |  |
| COc1ccc(-c2noc(C)c2-c2ccc3ccccc3n2)c(O)c1 | inconclusive: 13 µM [inhibitor, partial curve] |  |
| C=CC[n+]1cccc2cccc(O)c21 | inactive |  |
| COc1ccc(-c2csc(NC(C)c3nc4cc(Cl)c(N5CCCCC5)cc4n3CCCO)n2)cc1 (stereo unspecified) | inconclusive: 25.9 µM [inhibitor, partial curve, poor fit] |  |
| COc1ccccc1C1CCN(C(=O)c2cnn(-c3ccccc3)c2C)CC1 | active: 14.6 µM |  |
| COc1ccc(C(=O)C2CCCN(C(=O)c3ccc4cc[nH]c4c3)C2)c(C)c1 (stereo unspecified) |  | inconclusive: -30.1% [inhibitor] |
| CCOC(=O)c1cccc(NC(=O)COc2ccc([N+](=O)[O-])cc2)c1 | inconclusive: 16.4 µM [inhibitor, single point] |  |
| O=C(Cn1c(=O)nc(-c2ccccc2F)c2cc(Cl)ccc21)NCCCc1ccccc1 | inconclusive: 25.9 µM [inhibitor, single point] |  |
| Cc1cccc(NC(=O)c2sc3nc(-c4cc5ccc(O)cc5oc4=O)[nH]c(=O)c3c2C)c1 | active: 20.6 µM |  |
| Cc1ccsc1C(=O)Nc1nc2ccccc2[nH]1 | inconclusive: 25.9 µM [inhibitor, partial curve, poor fit] |  |
| O=C1CCN(CCc2ccccc2)CCN1CCOc1ccccc1 | inconclusive: 25.1 µM [inhibitor, single point] and inconclusive: 18.4 µM [inhibitor, single point] |  |
| COc1ccccc1NC(=O)c1ccc(NS(=O)(=O)c2ccc(F)c(Cl)c2)cc1 | inconclusive: 13 µM [inhibitor, partial curve, poor fit] |  |
| CC(=O)Oc1c(C)cc(Cl)cc1C(=O)Nc1ccc([N+](=O)[O-])cc1Cl | active: 0.461 µM |  |
| COCCNC(=O)c1c(N)n(/N=C/c2cccs2)c2nc3ccccc3nc12 | active: 16.4 µM |  |

| Structure (SMILES) | Potency | activity change, negative = growth inhibition |
| --- | --- | --- |
| CNC(=O)c1ccc2c(c1)N(Cc1ccccc1Cl)C(=O)c1ccccc1S2 | inconclusive: 23.1 µM [inhibitor, single point] |  |
| C=CC(C)N1C(=O)S/C(=C\c2ccc(N3CCOCC3)cc2C)C1=O (stereo unspecified) | active: 13 µM |  |
| COc1cccc(NC(=O)CNc2cc(S(=O)(=O)N3CCOCC3)ccc2N2CCCC2)c1 | inconclusive: 20.6 µM [inhibitor, partial curve] |  |
| Cc1ccc(OCC(O)CN2CCc3ccccc3C2)c(C)c1 (stereo unspecified) | inconclusive: 23.1 µM [inhibitor, single point] |  |
| Cc1c(C(=O)O/N=C(\N)c2ccccn2)cccc1[N+](=O)[O-] | inconclusive: 29.1 µM [inhibitor, partial curve] |  |
| Cc1c(C)n(CCc2ccccc2)c2ncnc(NCCCO)c12 | inconclusive: 25.9 µM [inhibitor, single point] |  |
| CCOC(=O)c1c(N/N=C/c2cccnc2)n[nH]c1C | active: 13 µM |  |
| Cc1cccc(CNC(=O)CCCN2C(=O)CCn3nc(-c4cccn4C)cc32)c1 | inactive |  |
| CCc1ccccc1NC1Nc2cc(C)nn2S1 (stereo unspecified) | inconclusive: 25.9 µM [inhibitor, single point] |  |
| COc1ccc(CN(C)C(=O)c2cc(S(=O)(=O)N3CCOCC3)ccc2N2CCCC2)cc1 | inconclusive: 18.4 µM [inhibitor, single point] |  |
| O=c1c2c(-c3cccs3)csc2ncn1-c1ccc(Br)cc1 | inconclusive: 10.3 µM [inhibitor, partial curve] |  |
| Cc1nn(Cc2ccc(Cl)cc2)c(C)c1NC(=O)c1cc(-c2ccc3c(c2)OCO3)on1 | active: 14.6 µM |  |
| Cc1ccc(S(=O)(=O)Nc2cccc(C(=O)NCC3CCCO3)c2)cc1F (stereo unspecified) | inconclusive: 18.4 µM [inhibitor, single point] |  |
| CCc1cccc(C)c1Nc1c(-c2ccsc2)nc2ncccn12 | active: 7.31 µM |  |
| COc1ccc(N2CCN(Cc3nnc(-c4ccc5c(c4)OCO5)o3)CC2)cc1 | inconclusive: 29.1 µM [inhibitor, single point] |  |
| CCN(CC)S(=O)(=O)c1cccc(NC(=O)CN2C(=O)NC3(CCC(C)CC3)C2=O)c1 (stereo unspecified) | inconclusive: 16.4 µM [inhibitor, single point] |  |
| CCOc1c(Cl)cc(C(=O)N(Cc2ccc(N(C)C)cc2)Cc2ccco2)cc1Cl | active: 13 µM |  |
| N=c1c(S(=O)(=O)c2ccc(Br)cc2)cc2c(=O)n3ccccc3nc2n1C1CCCCC1 | inconclusive: 29.1 µM [inhibitor, single point] |  |
| Cc1ccc(C(=O)N/C(=C\c2ccc(-c3cccc([N+](=O)[O-])c3)o2)C(=O)NCCCN2CCOCC2)cc1 | inconclusive: 23.1 µM [inhibitor, single point] |  |
| CCOC(=O)Cc1csc(SCC(=O)Nc2ccc(C)cc2F)n1 | active: 14.6 µM |  |
| O=C(COc1cc(F)ccc1[N+](=O)[O-])Nc1ccc(N2CCCCC2)cc1 | inconclusive: 16.4 µM [inhibitor, single point] |  |
| CC(C)Cc1ccc([C@@H](C)C(=O)NS(C)(=O)=O)cc1 | inconclusive: 26.6 µM [inhibitor, single point] |  |
